Experimental data taken from PubChem BioAssay AID1745845 (National Center for Advancing Translational Sciences (NCATS), 2022).
Among all 360,000 compounds or so, about 2,600 (0.72%) were called active. The shares of active, inactive and inconclusive entries below differ from those in the screen. The call rests on the fitted dose curve; in most records, active means well fitted inhibition curve with a large enough effect; inconclusive means small, poorly fitted or top-dose-only effect; inactive means no such curve, though single readings can be large or run the other way. Potencies of inconclusive entries are doubtful fits and often do not repeat.

Assay: Primary qHTS for Inhibitors of ATXN expression; further: nearly all actives have a fitted effect of over 55% in size
Conditions: HEK-293 ATXN2-luciferase reporter, luminescence, 24 h; activity change, negative = inhibition: at 57 µM (top of the series)
Summary of the method: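 ATXN2-luciferase reporter cells (luciferase flanked by upstream and downstream ATXN2 gene portions) were treated 24 h at 37 °C with compounds at up to 57 uM. SteadyGlo luminescence gave expression; GF-AFC fluorescence gave viability.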
On the % scale 0 is the no-effect control and ±100 the full control effect; potency means the concentration at half of the fitted maximal effect; tags describe the fitted curve by direction and shape.

Potency, inconclusive:
CCc1cccc(NC(=O)C2CCN(c3ncnc4sc(C)c(C)c34)CC2)c1 33.6 µM [inhibitor, single point], O=C(c1ccc(S(=O)(=O)c2ccc(F)cc2)c([N+](=O)[O-])c1)N1CCCCCC1 22.4 µM [inhibitor, partial curve], CCc1nnc2sc(-c3cc(-c4ccccc4)nc4ccccc34)nn12 39.8 µM [inhibitor, single point], CN(C)c1ccc(CNCCC(Cc2ccccc2)c2ccco2)cc1 (stereo not drawn) 17.8 µM [inhibitor, partial curve, poor fit], COc1ccc(S(=O)(=O)N(CC(=O)Nc2ccc(Br)cc2)Cc2ccccc2)cc1 22.4 µM [inhibitor, partial curve, poor fit], CCCCCCCNC(=O)C1(CC2CC(c3ccccc3)=NO2)CCN(C(=O)c2ccccc2)CC1 (stereo not drawn) 39.8 µM [inhibitor, partial curve, poor fit], O=C(Nc1ccc(OC(F)(F)F)cc1)N1CCN(c2ccnc3cc(Cl)ccc23)CC1 3.16 µM [inhibitor, partial curve, poor fit], CCCCc1ccc(NS(=O)(=O)c2ccc(C)c(C(=O)N3CCN(c4cccc(C)c4C)CC3)c2)cc1 27.3 µM [inhibitor, single point], Clc1ccc(N2N=C(c3cccs3)CC2c2ccco2)cc1 (stereo not drawn) 25.1 µM [inhibitor, partial curve, poor fit], Cc1cccc(C(C)(C)C)c1OCCn1ccnc1 39.8 µM [inhibitor, partial curve, poor fit], CS(=O)(=O)N1CCC(Oc2cccc(C(=O)NCCCC3CCCC3)c2)CC1 17.8 µM [inhibitor, partial curve], C#CCOCCOCCOCCNc1nc(N2CCN(C(=O)C(Cc3cc4ccccc4[nH]3)n3cc(C(N)Cc4ccc(O)cc4)nn3)CC2)nc(N2CCN(C(=O)C(Cc3cc4ccccc4[nH]3)n3cc(C(N)Cc4ccc(O)cc4)nn3)CC2)n1 (stereo not drawn) 35.5 µM [inhibitor, single point], COc1cc(C(=O)Oc2cccc(Nc3ncnc4ccccc34)c2)cc(OC)c1OC 25.1 µM [inhibitor, partial curve, poor fit], CCCCOc1cccc(C2c3c(-c4cc(C)ccc4O)n[nH]c3C(=O)N2CCOC)c1 (stereo not drawn) 39.8 µM [inhibitor, single point], CCOC(=O)N1CCC(NC(=O)C2CCC(CNS(=O)(=O)c3ccc(OC)cc3)CC2)CC1 (stereo not drawn) 39.8 µM [inhibitor, single point], CCOC(=O)[C@]12CCCC=C1N(Cc1cccc3ccccc13)C(=O)[C@H](CC(=O)NCc1ccc(OC)c(OC)c1)C2 20 µM [inhibitor, partial curve, poor fit], CNC(=O)c1cc(COc2nnc(Nc3ccc(Cl)cc3)c3ccoc23)ccn1 34.3 µM [inhibitor, partial curve, poor fit], CCOc1ccc2nc(NC3=NC(C)(C)C=C(C)N3)nc(C)c2c1 8.91 µM [inhibitor, partial curve, poor fit], COc1ccc(N/N=C(/N=Nc2nc(C)cc(=O)[nH]2)c2ccccc2)cc1 2.51 µM [inhibitor, full curve], O=C(CN1CCN(C(=S)NC2CCCC2)CC1)Nc1ccc(Oc2ccccc2)cc1 11.2 µM [inhibitor, partial curve, poor fit], C[C@H](CO)N1C[C@H](C)[C@@H](CN(C)S(=O)(=O)c2ccc(F)cc2)Oc2ccc(NC(=O)Nc3ccc(C(F)(F)F)cc3)cc2C1=O 31.6 µM [inhibitor, single point], NC(=S)NN=C1c2ccccc2-c2cc(Br)ccc21 37.7 µM [inhibitor, single point], O=S(=O)(Cc1cc(NCc2ccccc2)nc(-c2ccccn2)n1)c1ccccc1 31.6 µM [inhibitor, single point]

Potency, inactive:
COc1ccc(S(=O)(=O)Nc2cccc(-c3ccc(N4CCCC4)nn3)c2)cc1F, NC(=O)c1c(-c2ccc(Cl)cc2Cl)csc1NC(=O)Cc1ccccc1, COC(=O)CN1C(C(=O)c2ccccc2)=C(OC(=O)c2ccccc2)c2ccccc2S1(=O)=O, CCC(C)(C(=O)NC1CCCC1)N(CC1CCCO1)C(=O)c1ccc2c(c1)OCO2 (stereo not drawn), O=C(c1ccc2ccccc2c1)N1CCN(Cc2ccccc2)CC1, Cc1ccc(NS(=O)(=O)c2csc(C(N)=O)c2)cc1C, CC(C)Cn1c(N)c(C(=O)NCCN2CCOCC2)c2nc3ccccc3nc21, Cc1cc2cc(C(c3nnnn3Cc3ccccc3)N3CCc4ccccc43)c(=O)[nH]c2cc1C (stereo not drawn), O=C(CCNS(=O)(=O)c1ccc2c(c1)CCN2C(=O)C1CC1)Nc1ccc(OC(F)(F)F)cc1, O=C(c1ccc(CNS(=O)(=O)c2ccccc2)cc1)N1CCN(c2ccccn2)CC1, COc1ccc(-c2cc(C(F)(F)F)n3nc(C(=O)N4CCCC4)cc3n2)cc1, CCCCCC(=O)Nc1nnc(CCc2ccccc2)s1, COC(=O)c1cc(-c2ccccc2)sc1N, CC1=CC(c2ccccc2)=NS(=O)(=O)N1, CC1(C)OC(=O)C2=C(C[C@@H](C3CCCCC3)O[C@H]2c2ccccc2)O1, O=C(CSc1nc(N2CCCCC2)nc(N2CCCCC2)n1)N1CCN(c2ccccc2)CC1

Potency, active:
O=c1c2ccccc2cnn1-c1nc2ccccc2[nH]1 0.562 µM, CN(C)CCNc1ccc(CO)c2oc3ccc(O)cc3c(=O)c12 21.2 µM, S=C(NN=Cc1ccccn1)N(Cc1ccccn1)Cc1ccccn1 7.94 µM

Activity change, negative = inhibition, inactive:
COc1ccccc1NC(=O)C(=O)NCc1ccncc1 -21.8% [at 11.3 µM]
